Data taken from PubChem BioAssay AID1159614 (National Center for Advancing Translational Sciences (NCATS), 2016).
Out of some 45,000 compounds screened, about 65 (0.1%) were called active. Calls follow the shape of the dose curve; as a rule, active = well fitted activation curve with a large enough effect; inconclusive = small, poorly fitted or top-dose-only effect; inactive = no such curve, though single readings can be large or run the other way. The list shows a part of the results.

Biological target: Galactocerebrosidase (Homo sapiens) (UniProt P54803)
Assay: A Novel Cell-Based Assay to Identify Small Molecules for B -Galactocerebrosidase; also: 0% is about no effect; nearly all actives have a fitted effect of over 65% in size
Settings: 145M-Twi-hGALC-G270D cells (Twitcher mouse brain line with human GALC G270D), HMU-beta-Gal fluorescence, 48 h; series mostly up to 57.5 µM; activation: at the top concentration
Summary of the method: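 Fluorogenic HMU-b-Gal hydrolysis (0.1 mM final, pH 5.2 citrate-phosphate with 1 mg/mL sodium taurocholate; carbonate stop buffer) measures mutant GALC activity after compound treatment of live 145M-Twi Twitcher brain cells stably carrying human GALC-G270D, with wild-type GALC line alongside; activation sought.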

UniProt P54803, sequence (P54803 whole entry, looked up): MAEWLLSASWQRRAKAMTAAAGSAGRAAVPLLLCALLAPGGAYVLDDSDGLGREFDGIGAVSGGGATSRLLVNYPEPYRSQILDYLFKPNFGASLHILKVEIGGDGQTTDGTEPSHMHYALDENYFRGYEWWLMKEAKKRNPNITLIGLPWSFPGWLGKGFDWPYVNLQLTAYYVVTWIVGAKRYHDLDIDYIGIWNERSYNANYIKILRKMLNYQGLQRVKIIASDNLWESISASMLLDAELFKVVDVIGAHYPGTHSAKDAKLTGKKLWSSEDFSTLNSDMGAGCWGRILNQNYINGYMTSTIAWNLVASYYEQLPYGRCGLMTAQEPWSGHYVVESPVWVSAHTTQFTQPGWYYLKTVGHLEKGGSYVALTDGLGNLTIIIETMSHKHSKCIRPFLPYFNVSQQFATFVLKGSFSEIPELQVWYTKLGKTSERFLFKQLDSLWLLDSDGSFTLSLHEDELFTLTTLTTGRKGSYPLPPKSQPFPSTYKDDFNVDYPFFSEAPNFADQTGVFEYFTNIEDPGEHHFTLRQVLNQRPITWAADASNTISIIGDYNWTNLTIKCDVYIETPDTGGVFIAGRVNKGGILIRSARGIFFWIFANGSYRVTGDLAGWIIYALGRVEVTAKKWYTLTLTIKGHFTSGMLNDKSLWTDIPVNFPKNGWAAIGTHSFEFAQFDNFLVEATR

activation, inactive:
CCCCOc1ccc(C2C(=O)N(C3CCCCC3)CC(=O)N2C2CCCCC2)cc1 (stereo unspecified) -11.8%
Cc1ccc(NC(=O)C2CCN(S(=O)(=O)c3cccc4nsnc34)CC2)cc1 -15.3%
CCn1cc(C(=O)OCC(=O)Nc2cc(Cl)ccc2C)c(=O)c2ccc(C)nc21 -16.1%
Cc1ccc(C)c(N2CCN(C(=O)c3cc4cc5ccc(C)cc5nc4o3)CC2)c1 -8.15%
CC1CCN(S(=O)(=O)c2ccc3nc(NCc4ccc(N(C)C)cc4)ccc3c2)CC1 -8.19%
CCCCCCc1c(C)c2c(cc(C)c3c(C)coc32)oc1=O -24.1%
Cc1ccc(C)c(NC(=O)Cn2ncc3c(C)n(Cc4ccc(F)cc4)c(C)c3c2=O)c1 -9.82%
COc1ccc(C2C=C(c3ccccc3)Nc3nc(NC(C)=O)nn32)cc1 (stereo unspecified) -4.44%
CCn1nc(C)c2c(-c3ccccc3)cc(=O)n(C(C)C(=O)Nc3ccc(OC)c(OC)c3)c21 (stereo unspecified) -16.9%
Cc1cccc(NC(=O)Nc2cccs2)c1C 2.36%
CO[C@@]1(NC(=O)C(C(=O)O)c2ccc(O)cc2)C(=O)N2C(C(=O)O)=C(CSc3nnnn3C)CO[C@@H]21 (stereo partly specified) -10.7%
CCOC(=O)c1ccccc1NC(=O)CN(c1ccccc1)S(=O)(=O)c1ccc(OCC)cc1 -12.2%
COc1ccc(-c2cc(C(F)(F)F)n3nc(C)c(-c4ccccc4)c3n2)cc1OC -10.7%
O=C(CCc1cn(Cc2ccc(F)cc2)c2ccccc12)NC1CCCCC1 0.718%
N#C/C(=C\c1ccc(O)cc1)C(=O)NCC1CCCO1 (stereo unspecified) 12.2%
CC1=C(c2ccc(C)c(C)c2)S(=O)(=O)N(Cc2ccc(C(=O)NCc3ccccc3F)cc2)C1=O -25.4%
Cc1cc(C)cc(NC(=O)Cn2nnc(-c3ccccc3F)n2)c1 -8.34%
CCOC(=O)c1c(Nc2ccc(C)c(C)c2)nnc(-c2ccccc2)c1-c1ccccc1 -44%
Cc1ccc(C)c(OCC(=O)Nc2sc3c(c2C#N)CCCC3)c1C -3.61%
CCC1CCCCN1CCCNC(=O)c1ccc2c(c1)c(C)c(C)n2CC (stereo unspecified) 2.78%
CCCC(=O)Nc1cc2nn(-c3ccc(OC)cc3)nc2cc1C -0.448%
O=C(NCCc1ccccc1)c1c[nH]c2ccc(S(=O)(=O)Nc3ccc(F)cc3F)cc2c1=O -16.7%
CCOc1ccc(NC(=O)NCCN2CCN(c3cc(Cl)ccc3C)CC2)cc1 -21.6%
CCc1ccc(C(=O)c2cn(CC(=O)NCCc3ccccc3)c3nc(C)ccc3c2=O)cc1 -11%
COc1cccc(NC(=O)C2CCCN(c3ncnc4onc(-c5ccc(F)cc5)c34)C2)c1 (stereo unspecified) -10.3%
Cc1cc(C)c(NC(=O)Cn2c(=O)n(CCC(C)C)c(=O)c3cccnc32)c(C)c1 -11.8%
COc1ccc(-c2nn(C)c3sc(C(=O)NCCN(C)C)cc23)cc1OC -15.5%
COc1ccc(CNC(=O)CN2N=C(c3ccc(Cl)cc3)CCC2=O)cc1 -12.3%
Cc1ccc(C2=Nc3ccccc3N=C(c3ccc(F)cc3)C2)c(O)c1 -11.7%
CCN(c1ccccc1C)S(=O)(=O)c1nnc(NC(=O)c2ccc(OC)c(OC)c2)s1 -13.3%
O=C(NCCSc1c[nH]c2ccccc12)c1ccc(Cl)cc1 -14.8%
O=C(NCCc1ccccc1)c1ccc2c(c1)N(Cc1ccc(Cl)cc1)C(=O)c1ccccc1S2(=O)=O -8.67%
COc1ccc(Cn2c(SCc3ccc(C(=O)NCc4ccc(C)cc4)cc3)nc3cccnc32)cc1 -7.17%
Cc1ccc(N2CC(NC(=O)CCCc3ccccc3)CC2=O)cc1 (stereo unspecified) -0.968%
O=C(Cn1nc(Cc2cccnc2)c2ccccc2c1=O)N1CCN(c2ccccc2F)CC1 -6.99%
Cc1ccc(Cl)cc1N1CCN(c2nc3ccc(C(=O)c4ccccc4)cc3n3cnnc23)CC1 -7.11%
COc1ccc(CNC(=O)c2ccc(CN3C(=O)C(C)=C(c4ccc(C)cc4)S3(=O)=O)cc2)cc1 -7.88%
CCc1nc(SC)ncc1C(=O)NCc1cccc(Br)c1 -8.36%
CC(=O)Nc1ccc(NS(=O)(=O)c2c(C(=O)N3CCCCCC3)c(C)n(C)c2C)cc1 -17%
Cc1ccccc1OCC(=O)Nc1ccc(S(=O)(=O)N(Cc2ccccc2)c2ccccc2)cc1 -13%
COC(=O)c1ccc(NC(=O)c2cc(S(=O)(=O)N3CCOCC3)cn2C)cc1 -11.3%
COc1ccc(CCNC(=O)CSc2cn(CCNC(=O)c3c(F)cccc3F)c3ccccc23)cc1OC -14.2%
CN(C)c1ccc(NC(=O)Cn2c(SCc3ccc(F)cc3)nc3ccncc32)cc1 -0.265%
Cc1ccc(-n2ncc(C(=O)NCc3ccc4c(c3)OCO4)c2C2CCN(C(=O)OC(C)(C)C)CC2)c(C)c1 17.4%
Cc1oc2cc3oc(=O)c(CCC(=O)NCCc4ccccc4F)c(C)c3cc2c1C 19%
Cc1ccc(OCCSc2nnc(-c3cccs3)o2)cc1 -1.63%
COc1ccc(-c2nc3c(c(SCc4ccc(Br)cc4)n2)Cc2c(CO)cnc(C)c2O3)cc1 -3.07%
Cc1ccc(C(=O)COC(=O)CCC(=O)Nc2ccc(Oc3ccccc3)cc2)cc1 -10%
COc1ccc(Cn2c(=O)c3oc4ccccc4c3n(CC(=O)Nc3c(C)cccc3C)c2=O)cc1 -14.4%
Cc1ccc2c(c1)c1c(c(=O)n(-c3ccccc3)c(=O)n1Cc1ccccc1C)n2C 9.63%
Cc1cc(C)cc(N(CC(=O)NCCc2ccc(Cl)cc2)S(=O)(=O)c2c(C)noc2C)c1 -18.1%
COc1ccc(NC(=O)Nc2nnc(N3CCCC3)s2)cc1 -2.4%
CN1CCN(C(=O)c2cnn(-c3ccc(F)cc3F)c2C2CCN(C(=O)OC(C)(C)C)CC2)CC1 -7.84%
CCC(=O)N1c2ccccc2CC1C(=O)NCc1ccc(CC)cc1 (stereo unspecified) -15.3%
Cc1ccc2c(=O)cc(C(=O)N(Cc3ccc(C(C)(C)C)cc3)C3CCS(=O)(=O)C3)oc2c1 (stereo unspecified) -15.4%
CC(=O)c1ccc(S(=O)(=O)NC(=O)NC2CCCCC2)cc1 -7.79%
COc1ccc(Cn2ccc3nc(C)c(C(=O)NCc4ccc(SC)cc4)cc3c2=O)cc1 -17.7%
Cc1ccc(CNS(=O)(=O)c2cnc(N)nc2)cc1 -35.9%
Cc1ccccc1NC(=O)Cn1nc(-c2ccccc2)nc(Cc2ccccc2)c1=O -14.1%
O=C(c1cc2c(Cl)nc3ccccc3c2s1)N1CCCCC1 11.7%
COc1ccc(CNC(=O)CSc2nnc(C)c3c(C)n(-c4ccccc4)nc23)c(OC)c1 -16.9%
CCc1ccc2ncc3c(-c4ccc(C)cc4)nn(CC(=O)NCc4ccccc4)c3c2c1 -22.7%
CCOC(=O)c1sc2ncn(CC(=O)Nc3ccc(OC)c(Cl)c3)c(=O)c2c1C -8.76%
Cc1ccccc1Cn1c2ccccc2c2cnn(CC(=O)NC3CCCCCC3)c(=O)c21 -14.6%
COc1ccc(Br)cc1Cn1nnc(C(=O)Nc2cccc(SC)c2)c1N -12.3%
CC(C)CCNC(=O)Cn1nc(N2CCN(c3ccccc3)CC2)ccc1=O -10.8%
COc1ccc(-c2nc3sc(CCNC(=O)C(=O)Nc4ccc(OC)c(OC)c4)c(C)n3n2)cc1 -2.84%
O=C(CSc1nc2ccccc2n1Cc1cccc(F)c1)NCc1ccccc1 -1.62%
O=C(CC(c1cccs1)N1Cc2ccccc2C1=O)Nc1ccc(F)cc1 (stereo unspecified) -2.95%
CC(=O)c1cccc(NC(=O)CSc2ncc3c(n2)-c2cc(Cl)ccc2N(Cc2ccccc2)S3(=O)=O)c1 1.84%
COc1cc(CNC(=O)c2cc3n(n2)CCCN(Cc2cccc(F)c2)C3=O)cc(OC)c1OC -7.59%
CSc1cccc(NC(=O)c2cc3c(COC(C)=O)cnc(C)c3oc2=O)c1 -12.8%
COc1ccc(S(=O)(=O)NCc2nc(-c3ccccc3)no2)cc1 -3.68%
Cc1ccc(NC(=O)c2ccc(CN3CC(=O)N4CCCCC4C3=O)cc2)c(Cl)c1 (stereo unspecified) -34.4%
COc1ccc(OC)c(C2C(C(=O)Nc3ccc(C)cc3)=C(C)Nc3nnnn32)c1 (stereo unspecified) -8.22%
CN1CCN(C(=O)c2ccc3c(c2)N(Cc2ccc(C(F)(F)F)cc2)C(=O)c2ccccc2S3)CC1 -18.4%
CN(CC(=O)Nc1cccc(F)c1)S(=O)(=O)c1ccc2c(c1)n(C)c(=O)c(=O)n2C -7.23%
O=C(NCc1ccccc1F)C(=O)NCC(c1ccc2c(c1)OCO2)N1CCOCC1 (stereo unspecified) -5.29%
Nc1ncn([C@@H]2O[C@H](CO)[C@@H](O)[C@H]2O)c(=O)n1 -19.1%
Cc1ccc(-n2nc(C(=O)N3CCN(c4ccccc4F)CC3)c(=O)n(C)c2=O)cc1 -13.1%
CCCCCc1ccc(-c2ccc(Br)cc2)nc1 -13.7%
COc1ccc(CN(CCN(C)C)c2ccccn2)cc1 -7.51%
CC(=O)N1CCc2c(sc3c2c(=O)n(-c2ccccc2)c(=O)n3CC(=O)Nc2cc(C)cc(C)c2)C1 -5.26%
CCOc1ccc(CCNC(=O)c2c(C)oc3ncn(CC(C)C)c(=O)c23)cc1OCC -4.62%
CCCNC(C)C(=O)Nc1ccccc1C (stereo unspecified) -12.8%
CCc1ccc(NC(=O)CSc2nc(C)c(C(=O)Nc3ccccc3)c(-c3ccc(OC)c(OC)c3)c2C#N)cc1 -16.8%
Cc1cc(Br)ccc1NC(=O)CSc1c2c(nc3ccccc13)CCC2 -4.86%
COc1ccccc1N1CCN(c2ccc(=O)n(CC(=O)NCc3ccc(F)cc3)n2)CC1 3.54%
COc1ccc(NC(=O)c2cc3cc(C)ccc3[nH]2)cc1 -28.2%
CCOc1ccccc1NC(=O)CSc1nc2c(oc3ccccc32)c(=O)n1-c1ccc(F)cc1 -15%
COc1cccc(CSc2nc3n(n2)C(c2ccc(C(=O)O)cc2)C(C(=O)Nc2ccccc2)=C(C)N3)c1 (stereo unspecified) -16.1%
O=C(OCc1cc(=O)n2nc(-c3cccs3)sc2n1)c1ccccc1Cl -12.7%
CC(C)(C)C(=O)CSc1nc2ccsc2c(=O)n1Cc1ccccc1Cl -11.3%
CSc1ccc(CCNC(=O)c2cc(C)nc3c2c(C)nn3-c2cccc(F)c2)cc1 -0.513%
Cc1c(C(=O)N2CCCCCC2)c(S(=O)(=O)NCc2ccccc2)c(C)n1C -10.9%
CSc1ccccc1-c1nnc(NC(=O)c2ccc3c(c2)OCCO3)o1 -11.2%
